This is one part of the list.

The target in the assay is T1, OsWOX13 (Oryza sativa, UniProt Q5QMM3 1-267).
T1 sequence: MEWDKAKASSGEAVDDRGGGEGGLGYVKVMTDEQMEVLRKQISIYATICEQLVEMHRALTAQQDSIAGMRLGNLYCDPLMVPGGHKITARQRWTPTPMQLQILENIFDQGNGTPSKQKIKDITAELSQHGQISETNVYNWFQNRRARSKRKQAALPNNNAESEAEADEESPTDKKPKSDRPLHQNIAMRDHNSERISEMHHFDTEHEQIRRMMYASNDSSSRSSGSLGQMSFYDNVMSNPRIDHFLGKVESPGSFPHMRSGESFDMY
Put plainly: protein-binding microarray (RPBM); PBS, 2% BSA, 51.3 ng/ul salmon testes DNA, 50 uM zinc acetate, 200 nM TF, 25 C, 1 h; high values mean tight binding. Particulars: protein: recombinant; tags: N-terminal polyhistidine and DsRed monomer fusion (pET32a); label: CyDye5-dUTP incorporated in the synthesized complementary strand; 3' TTTTT single-stranded linker to array surface; dsDNA, one strand shown. The essentials: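 Polyhistidine-tagged DsRed fusions of transcription factors, joined at the N-terminus, were expressed in E. coli BL21-CodonPlus and isolated on Ni–NTA. They were incubated at 200 nM for 1 h at 25 °C on a custom Agilent array, double-stranded and BSA-blocked, in PBS with 2% BSA, salmon testes DNA and 50 µM zinc acetate. The binding signal is per-feature fluorescence intensity (arbitrary units) read on an Axon 4000B scanner after washing.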
On to “TAGCAGCCAATTAGTCCACTTAATCACCCATGGATCGCGACGGAGTCACCTAGTGCAG”, for which the binding signal was 13400 fluorescence intensity (a.u.). The figure for “TTTGATGCTGATTATAGGAAAATGTAAATGTTTCTATATACGGAGTCACCTAGTGCAG” is 6110 fluorescence intensity (a.u.); for “TTTAAAATTCTAATCATCATCGTGGATGACTATGTCAGTACGGAGTCACCTAGTGCAG” it is 10800 fluorescence intensity (a.u.). Consider “CTATCAACTGATTGGCTTTACAAGTTGCAAAATCTATTATCGGAGTCACCTAGTGCAG”, for which the binding signal was 18900 fluorescence intensity (a.u.). Under “AAACAATCACGGATATCCAAATAAACAACCCGAAACCGAACGGAGTCACCTAGTGCAG” stands 8660 fluorescence intensity (a.u.); under “TAGATTAATTTGGAATGGAGGGAGTATATGAGTAAGCTAACGGAGTCACCTAGTGCAG”, 15400 fluorescence intensity (a.u.); under “GAAAAGTACCCGTGATTGCAACAATTAAAGACGACAGGGACGGAGTCACCTAGTGCAG”, 14100 fluorescence intensity (a.u.).

Turning to “CTTAATTACGTCATCGTCAACTCGCCGTTTAGTTTAGTCTCGGAGTCACCTAGTGCAG”, the binding signal is 37600 fluorescence intensity (a.u.). In the case of “CCCAATTGATGGCCCTAACAAAGTCAACAGCTGGATTATACGGAGTCACCTAGTGCAG”, the binding signal is 16200 fluorescence intensity (a.u.).

As for “TAGATTGACTATAGACACTAAAGTTAAGAAAAGAATAACCCGGAGTCACCTAGTGCAG”, the binding signal is 29300 fluorescence intensity (a.u.).

As for “CTAATTGGACATGAGTAGAGAGTTGATGCCGGGCTGTCACCGGAGTCACCTAGTGCAG”, the binding signal was 18700 fluorescence intensity (a.u.). The figure for “CAGGATTGACACTCGAACAACAGCTACCGCGTACAGCAAACGGAGTCACCTAGTGCAG” is 21300 fluorescence intensity (a.u.). For “CTTTTCTTTTATTGTGGCTTGATTTATCACTAAAGGAACTCGGAGTCACCTAGTGCAG”, the binding signal is 3250 fluorescence intensity (a.u.).

As for “AAAAGTTATTCCATTAATTAGCTACTCGGTCCATGCAAAGCGGAGTCACCTAGTGCAG”, the binding signal is 8950 fluorescence intensity (a.u.). The figure for “TCTTTTAATGATTAGAGATGATATATGAGTTTGCACCTGACGGAGTCACCTAGTGCAG” is 28600 fluorescence intensity (a.u.); for “AATTGATGACATTTTATACCATTCAAAGTTTCAAACCTCTCGGAGTCACCTAGTGCAG” it is 12600 fluorescence intensity (a.u.); for “ATAGATTAATAGATGGGATGTGAATAGAGAAGTAGTATAGCGGAGTCACCTAGTGCAG” it is 36400 fluorescence intensity (a.u.). For “GGATTTGATTTGGGACAGATTTGAGATTAGGGTTTGGATTCGGAGTCACCTAGTGCAG”, the binding signal is 30200 fluorescence intensity (a.u.). For “AACAATCAATTATCCGGCAAACTTCCGGACCGCATTGACACGGAGTCACCTAGTGCAG”, the binding signal is 26900 fluorescence intensity (a.u.). Under “TCCTGACACCTCCCAATCAATTCCCATCTCCGCCACTGCTCGGAGTCACCTAGTGCAG” stands 15600 fluorescence intensity (a.u.). The figure for “ATATTATTTGATTTATTGTTAAATATACTTTCATGTACACCGGAGTCACCTAGTGCAG” is 18500 fluorescence intensity (a.u.). The figure for “ATTAGGCAAGGTGATTAGTGATACATTATGTGCTGTACCTCGGAGTCACCTAGTGCAG” is 4420 fluorescence intensity (a.u.). Regarding “ACATCAAATTCAAATTTGTTCCTTTCCTATACGGTTAGTACGGAGTCACCTAGTGCAG”, the binding signal was 3750 fluorescence intensity (a.u.).

For the sequence “AATCAGATAAACAAATTGAAATTTGAATTGAACTAAACAACGGAGTCACCTAGTGCAG”, the binding signal is 6660 fluorescence intensity (a.u.). Under “CTAGAATTTGACATAAATCAGTTTTGTTTTCTATAAGAACCGGAGTCACCTAGTGCAG” stands 12600 fluorescence intensity (a.u.); under “ACCAGCTCAGTTAATTGCAAGCAAGAATAAACAAGCTCGACGGAGTCACCTAGTGCAG”, 8180 fluorescence intensity (a.u.); under “TATATACCATGATTAACACTATTGTATACCTCTGCCTCTTCGGAGTCACCTAGTGCAG”, 3690 fluorescence intensity (a.u.).

Turning to “TTTAACACAAATGAGAACTTGATCGATTCCTCGTATTGTTCGGAGTCACCTAGTGCAG”, the binding signal is 3850 fluorescence intensity (a.u.). With “ATAAATAGACTGAAATGTCCTCGTTCTCTGTTTCTCTTTCCGGAGTCACCTAGTGCAG”, the binding signal was 28700 fluorescence intensity (a.u.). The figure for “TTATAATTGTCATGCAATTATAATAACGTGGGTTAAATATCGGAGTCACCTAGTGCAG” is 27900 fluorescence intensity (a.u.); for “TTTATGACTTTAAATAATTAATAGTACTATTATCTAAACTCGGAGTCACCTAGTGCAG” it is 4140 fluorescence intensity (a.u.). The figure for “TACCCGGGTGATTAGAATCCATATAAGAGCAGACCGCTCTCGGAGTCACCTAGTGCAG” is 14400 fluorescence intensity (a.u.). Under “AAAGTTTAAACATAATAATTGATTTGCAGCTACCATAAGACGGAGTCACCTAGTGCAG” stands 40600 fluorescence intensity (a.u.); under “TATAATGTAATTGTAGTATAATTGCATTATAACTTACATGCGGAGTCACCTAGTGCAG”, 42500 fluorescence intensity (a.u.). For the sequence “AATAAATAGTTTGATTGAATTATAGATAGGTGCCAAGAGGCGGAGTCACCTAGTGCAG”, the binding signal is 48400 fluorescence intensity (a.u.). The figure for “TTAGATAGATTAATATGTGATAGATCTTCACAAACAGACACGGAGTCACCTAGTGCAG” is 54900 fluorescence intensity (a.u.); for “CATTAATTTCGCAATTAATTTTGCTCGATCGTTCTTGCATCGGAGTCACCTAGTGCAG” it is 49600 fluorescence intensity (a.u.); for “ACTTTAATAAATAGATAAGAAATCCTGCTAAAATTTTAGCCGGAGTCACCTAGTGCAG” it is 4000 fluorescence intensity (a.u.). Under “AGCTAAAAGATCAATGATTTACAGAATAACAAGGGCAAAACGGAGTCACCTAGTGCAG” stands 5960 fluorescence intensity (a.u.); under “ACCTAATTAACCATCCGGCATGATCCATGCATGGCACAGCCGGAGTCACCTAGTGCAG”, 25400 fluorescence intensity (a.u.).

For “TAAAATTGGAATGATGTATTGGAAAAGTTAGAAATTTATGCGGAGTCACCTAGTGCAG”, the binding signal was 14300 fluorescence intensity (a.u.). The figure for “CAGTGTGATAATTTGCGTGTGGGAGACTAGTGGCACTATGCGGAGTCACCTAGTGCAG” is 4050 fluorescence intensity (a.u.); for “GTGTTAATTATGTGATAAGTTGCCTAAGATCAATTGCCAGCGGAGTCACCTAGTGCAG” it is 34600 fluorescence intensity (a.u.); for “GCTGTTGTGATTATTGCCTGTTTCTCCACATCGGCTTGAACGGAGTCACCTAGTGCAG” it is 18100 fluorescence intensity (a.u.).

Regarding “CATACTATTTAAATTTAAATTATCATAAACCACATTAATTCGGAGTCACCTAGTGCAG”, the binding signal is 21500 fluorescence intensity (a.u.). Under “TACCTAATTATAAAATAAGTAAGGTTTCCGGGTATGTTTTCGGAGTCACCTAGTGCAG” stands 16800 fluorescence intensity (a.u.); under “TAGTAAATTCCCCAAATTTATCTATCACTGTAAGATGGTACGGAGTCACCTAGTGCAG”, 10400 fluorescence intensity (a.u.).

For “TTCACATAATTTTGAATCGTTGGATCTATTACAAGATTTGCGGAGTCACCTAGTGCAG”, the binding signal is 3920 fluorescence intensity (a.u.).

With “AATTAATTGTGCGTGCCCGCTCGATCTGATGCTACCGAGCCGGAGTCACCTAGTGCAG”, the binding signal was 19400 fluorescence intensity (a.u.). Under “GATTTAGATTTTATATTTATTATGTTGATTAAACCAAAATCGGAGTCACCTAGTGCAG” stands 4330 fluorescence intensity (a.u.). Under “AAGAGGAATTAATGCAGGATTGCCTGTCCTGTCATCCTAGCGGAGTCACCTAGTGCAG” stands 3940 fluorescence intensity (a.u.). Turning to “AATTAATCCATAATTAGCACATGTTTACTATAGCATCACACGGAGTCACCTAGTGCAG”, the binding signal was 12800 fluorescence intensity (a.u.).

Turning to “ATGATATAATTTCCACAAGAACATTTATTCCCTCCCTACTCGGAGTCACCTAGTGCAG”, the binding signal was 4790 fluorescence intensity (a.u.). The figure for “ATTAATTAGCATGGCAAAGGAACTAATACTGGTCGGTTAGCGGAGTCACCTAGTGCAG” is 25800 fluorescence intensity (a.u.).

The record behind these values is publication PMC7819943, “Rice protein-binding microarrays: a tool to detect cis-acting elements near promoter regions in rice”.
